Reference: the BET-seq Pho4 binding data (Le et al. 2018)
The other results are listed elsewhere or left out. Values were computed here from the reads of four pooled replicates and scatter widely.

What follows are sequences tested against T1, Pho4 (S. cerevisiae) (UniProt P07270) (assay: relative binding free energy (BET-seq); higher = weaker binding). Conditions: reference: library average.
T1 sequence: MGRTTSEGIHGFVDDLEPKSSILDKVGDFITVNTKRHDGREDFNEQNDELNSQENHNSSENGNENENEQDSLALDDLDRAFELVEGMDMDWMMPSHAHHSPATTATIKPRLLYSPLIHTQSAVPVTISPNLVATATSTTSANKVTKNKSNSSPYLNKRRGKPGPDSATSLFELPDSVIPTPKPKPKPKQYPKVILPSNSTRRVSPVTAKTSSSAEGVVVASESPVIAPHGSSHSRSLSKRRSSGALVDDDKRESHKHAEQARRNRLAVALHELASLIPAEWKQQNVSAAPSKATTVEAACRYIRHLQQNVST

Row | Sequence | relative binding free energy
1 | GTGCTCACGTGAGGGG | 0.38 kcal/mol
2 | AATGTCACGTGGTAGA | 0.04 kcal/mol
3 | ATCTACACGTGAAGTG | 0.35 kcal/mol
4 | ATTGACACGTGCTATG | 0.01 kcal/mol
5 | ATATTCACGTGGTGAG | 0.2 kcal/mol
6 | GGCTTCACGTGTTGCG | 0.24 kcal/mol
7 | TATGCCACGTGGCGGG | -0.25 kcal/mol
8 | TCTAGCACGTGTTGTT | -0.01 kcal/mol
9 | GGATCCACGTGGGGCG | -0.09 kcal/mol
10 | CTTGACACGTGAATGT | 0.22 kcal/mol
11 | GATCTCACGTGGTTGT | 0.11 kcal/mol
12 | ATGATCACGTGTATAG | 0.07 kcal/mol
13 | TTCTGCACGTGTTAAA | 0.04 kcal/mol
14 | AGATGCACGTGAGTTA | 0.2 kcal/mol
15 | CCTGTCACGTGGTGTT | 0.07 kcal/mol
16 | TGTATCACGTGTGTCG | 0.13 kcal/mol
17 | GTAGGCACGTGCCGGG | -0.23 kcal/mol
18 | TTATTCACGTGTGCTA | 0.22 kcal/mol
19 | TCGGTCACGTGTGTGT | 0.1 kcal/mol
20 | TAATGCACGTGGTTAT | -0.07 kcal/mol
21 | GTTGGCACGTGGGCTT | -0.15 kcal/mol
22 | TAGATCACGTGTACTG | 0.23 kcal/mol
23 | TTTGACACGTGTGGAG | -0.01 kcal/mol

Row | Sequence | relative binding free energy
24 | TGCTGCACGTGCGTTT | -0.15 kcal/mol
25 | TAGTACACGTGTACGT | 0.12 kcal/mol
26 | TTTAGCACGTGTTTCA | -0.14 kcal/mol
27 | TTGTGCACGTGCAAGG | -0.05 kcal/mol
28 | TTTGACACGTGCTTTT | 0.04 kcal/mol
29 | GATGGCACGTGTAGGC | 0.11 kcal/mol
30 | GGAAGCACGTGTGTTG | 0 kcal/mol
31 | CGTTACACGTGGTGTG | -0.01 kcal/mol
32 | GTTGCCACGTGTGCGG | -0.11 kcal/mol
33 | AGGATCACGTGGTTTA | 0.06 kcal/mol
34 | ATTTGCACGTGTGAAT | 0.12 kcal/mol
35 | TGTGTCACGTGTATCG | 0.1 kcal/mol
36 | AGGAGCACGTGCTAGT | -0.21 kcal/mol
37 | TTTAGCACGTGAGTCT | 0.09 kcal/mol
38 | AACGGCACGTGAGTTG | 0.13 kcal/mol
39 | GAGGACACGTGGTGCT | 0 kcal/mol
40 | CTTGGCACGTGCATTT | -0.07 kcal/mol
41 | TGTTCCACGTGTGGAT | 0.09 kcal/mol
42 | TCTTGCACGTGGTTGG | -0.02 kcal/mol
43 | TGGGACACGTGTCTGT | -0.1 kcal/mol
44 | AAAGGCACGTGAGTAT | 0.29 kcal/mol
45 | CTTGACACGTGTGTTG | 0.08 kcal/mol
46 | GTTGTCACGTGGACTG | 0.1 kcal/mol

Row | Sequence | relative binding free energy
47 | ATGGTCACGTGGAGAT | 0.08 kcal/mol
48 | CCTATCACGTGGTGGG | 0.01 kcal/mol
49 | TACAGCACGTGTGGGT | 0 kcal/mol
50 | TGTTTCACGTGGGGTA | 0.1 kcal/mol
51 | TTGCGCACGTGTGAGA | -0.13 kcal/mol
52 | GGATTCACGTGATGAA | 0.5 kcal/mol
53 | TATGTCACGTGCGGCG | -0.03 kcal/mol
54 | GGATGCACGTGGGATC | 0.06 kcal/mol
55 | AGTGGCACGTGCGTCG | -0.2 kcal/mol
56 | GTGTGCACGTGTTCGG | -0.08 kcal/mol
57 | AATGTCACGTGTCGAT | 0.05 kcal/mol
58 | AACTACACGTGGTGTT | 0 kcal/mol
59 | TGTTGCACGTGTCGTG | -0.01 kcal/mol
60 | TTACACACGTGTGGGG | -0.01 kcal/mol
61 | GGAGTCACGTGGTGAA | 0.23 kcal/mol
62 | TCTTTCACGTGGAAGT | 0.37 kcal/mol
63 | GGGCGCACGTGTTTAT | 0.03 kcal/mol
64 | ATTTGCACGTGTGTCG | 0.02 kcal/mol
65 | TTTGGCACGTGTTTAT | -0.12 kcal/mol
66 | AAAGTCACGTGGTAGA | 0.09 kcal/mol
67 | ATGAGCACGTGTGAGG | 0 kcal/mol
68 | TTTTCCACGTGTGGAT | 0.28 kcal/mol
69 | TAAGTCACGTGACGTG | 0.13 kcal/mol

Row | Sequence | relative binding free energy
70 | GATTCCACGTGTGTTT | 0.28 kcal/mol
71 | GATGTCACGTGGATGC | 0.25 kcal/mol
72 | TTTTTCACGTGTGCCT | 0.38 kcal/mol
73 | TTGTTCACGTGTTATG | 0.32 kcal/mol
74 | TGGGGCACGTGGTTAT | -0.12 kcal/mol
75 | GGTTGCACGTGCGGCT | -0.05 kcal/mol
76 | GGTTGCACGTGGATTT | 0.16 kcal/mol
77 | GATATCACGTGCTGGT | 0.28 kcal/mol
78 | TTGCTCACGTGGTGAT | 0.23 kcal/mol
79 | GGTAGCACGTGGTGGG | 0.03 kcal/mol
80 | GATTTCACGTGTATGC | 0.49 kcal/mol
81 | TAGGCCACGTGGTTTG | -0.14 kcal/mol
82 | CAGGGCACGTGGATAT | -0.07 kcal/mol
83 | GAATACACGTGGTATT | 0.16 kcal/mol
84 | AGGTACACGTGTTGGA | 0.19 kcal/mol
85 | AGAGGCACGTGTGAGC | -0.06 kcal/mol
86 | AATAACACGTGTGGGG | -0.01 kcal/mol
87 | TAGTACACGTGGAAGT | 0.05 kcal/mol
88 | GGGGACACGTGCGGTG | -0.05 kcal/mol
89 | CGGAGCACGTGATAGT | 0.04 kcal/mol
90 | CTTTACACGTGGCTGT | 0.05 kcal/mol
91 | TATGTCACGTGAAGGA | 0.34 kcal/mol
92 | GTGCTCACGTGGATTG | 0.24 kcal/mol

Row | Sequence | relative binding free energy
93 | ACGGTCACGTGAGGGT | 0.4 kcal/mol
94 | GATTGCACGTGATGAG | 0.07 kcal/mol
95 | GTTTCCACGTGAGTAG | 0.21 kcal/mol
96 | TAAGACACGTGTGTTA | 0.01 kcal/mol
97 | TTGGCCACGTGAGGGT | 0.13 kcal/mol
98 | ATTGCCACGTGGATTG | 0.07 kcal/mol
99 | AGTTTCACGTGGTGGT | 0.21 kcal/mol
100 | TGTACCACGTGTGATG | -0.01 kcal/mol
101 | TGGTACACGTGGGCAG | -0.17 kcal/mol
102 | GTTATCACGTGAAGTG | 0.04 kcal/mol
103 | TTAGGCACGTGGTTGC | -0.22 kcal/mol
104 | TTGGGCACGTGTGTTA | -0.01 kcal/mol
105 | GGTTACACGTGAGAGC | 0.48 kcal/mol
106 | TTGGTCACGTGGTCGC | 0.04 kcal/mol
107 | GGCGGCACGTGACTGG | 0.01 kcal/mol
108 | TTGTGCACGTGGGAGG | -0.11 kcal/mol
109 | TCGGACACGTGGGTTA | -0.12 kcal/mol
110 | TCTGCCACGTGGGTTG | -0.25 kcal/mol
111 | AAACTCACGTGGGTGG | 0.21 kcal/mol
112 | AGGTTCACGTGTCCGG | 0.31 kcal/mol
113 | AGTATCACGTGTTTAG | 0.07 kcal/mol
114 | TGATACACGTGGCGGG | -0.12 kcal/mol
115 | TAGTACACGTGTGGTC | 0.12 kcal/mol
